Measurements as given in the supplement of paper PMC3334620.
The full ranking holds about 33,000 sequences; the median of “E-score (-0.5 to 0.5)” is about -0.035, and the highest 2% start at about 0.35. The list shows a part of the results.

These sequences were tested against T1, Pdr3 (UniProt P33200) (assay: PBM E-score (8-mer binding enrichment) (E-score (-0.5 to 0.5)); higher = stronger / more preferred TF binding; most listed sequences are background and not binding sites). Conditions: protein concentration: 200 nM; construct: GST-full length.
T1 sequence: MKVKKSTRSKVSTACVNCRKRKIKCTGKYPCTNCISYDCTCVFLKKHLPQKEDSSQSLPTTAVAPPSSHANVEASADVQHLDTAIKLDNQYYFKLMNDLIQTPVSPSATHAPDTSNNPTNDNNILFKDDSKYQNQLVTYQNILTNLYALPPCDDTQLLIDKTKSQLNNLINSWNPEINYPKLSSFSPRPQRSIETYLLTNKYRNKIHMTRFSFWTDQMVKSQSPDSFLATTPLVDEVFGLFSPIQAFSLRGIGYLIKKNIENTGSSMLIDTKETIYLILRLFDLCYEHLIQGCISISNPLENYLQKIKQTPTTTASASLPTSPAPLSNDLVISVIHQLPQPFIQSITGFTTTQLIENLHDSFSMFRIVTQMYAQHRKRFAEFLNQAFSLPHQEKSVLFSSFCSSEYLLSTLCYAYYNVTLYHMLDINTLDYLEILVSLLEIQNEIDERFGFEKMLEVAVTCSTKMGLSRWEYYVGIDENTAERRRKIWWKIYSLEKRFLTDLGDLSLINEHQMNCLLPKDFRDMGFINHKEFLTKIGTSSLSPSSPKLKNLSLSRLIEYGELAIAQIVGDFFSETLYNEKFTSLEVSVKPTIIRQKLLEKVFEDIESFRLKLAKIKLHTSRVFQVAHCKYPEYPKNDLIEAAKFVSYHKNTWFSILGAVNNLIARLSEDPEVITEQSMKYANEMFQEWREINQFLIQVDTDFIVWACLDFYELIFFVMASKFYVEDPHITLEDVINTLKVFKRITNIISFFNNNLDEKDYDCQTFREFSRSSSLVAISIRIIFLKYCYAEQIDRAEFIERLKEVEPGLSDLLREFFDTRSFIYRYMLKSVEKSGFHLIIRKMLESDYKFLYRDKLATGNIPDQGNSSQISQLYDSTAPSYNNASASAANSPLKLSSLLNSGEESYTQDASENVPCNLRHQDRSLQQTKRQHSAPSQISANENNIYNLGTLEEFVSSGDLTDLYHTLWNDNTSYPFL
Procedure, shortened: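 Masliner-normalised scans of fluorescent anti-GST signal were the basis for scoring. That signal came from GST-tagged yeast transcription factors applied at about 100-200 nM to double-stranded universal all-10-mer Agilent arrays on fresh or once-stripped slides. Each ungapped eight-base word, pooled with its reverse complement, received an E-score from the Universal PBM Analysis Suite.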

Row | Sequence | PBM E-score
1 | AACACCAA | -0.203
2 | ATCATTTC | 0.174
3 | ATACAACG | 0.0691
4 | CTAAAACC | 0.0462
5 | CGGCCTAG | 0.0451
6 | ACTACTCA | -0.154
7 | ACGTACGT | -0.368
8 | ACCGAGCG | 0.176
9 | CGCGTCGA | 0.188
10 | ACAGCACG | 0.191
11 | AAAGGCAC | 0.0624
12 | AAAGGGTA | -0.0997
13 | AAGCGCCC | 0.115
14 | TCAAATCA | -0.266
15 | CGAGTCTA | -0.354
16 | CAAGGGGA | -0.103
17 | GAACATTA | 0.0236
18 | ATTGCCTG | -0.0498
19 | AGGGCCTG | -0.195
20 | CCATCACA | -0.0736
21 | AACTGATG | -0.0174
22 | CACGGATG | 0.284
23 | AGTATTAG | 0.109
24 | AGCAACCA | 0.022
25 | CGGTGACC | -0.182

Row | Sequence | PBM E-score
26 | AAATCGGC | 0.279
27 | AAAAACCT | 0.0387
28 | CTGCCCGA | 0.117
29 | AAAGAGCA | 0.0111
30 | GTTGCTCA | -0.158
31 | GAGTTTCC | 0.174
32 | CGGGACAG | 0.359
33 | AGCGCCAA | -0.18
34 | GTTACCAA | 0.0207
35 | ACAGAGTC | -0.154
36 | ACTCACCT | -0.177
37 | GTACGAAA | -0.0942
38 | ACTCTAGG | -0.276
39 | GAACTATA | 0.21
40 | CCGAGAGA | 0.225
41 | CGGACAGC | 0.322
42 | ACGCGCGA | 0.0808
43 | AACTCATA | 0.0347
44 | AGTTATAT | 0.0373
45 | GATCCTCC | 0.0438
46 | ACTCTAAT | -0.181
47 | GCAGCAAA | -0.103
48 | ACTCCAAC | 0.0325
49 | CGGGGGGC | 0.0262
50 | GGGCCCAA | 0.0863

Row | Sequence | PBM E-score
51 | CACGTGTC | -0.112
52 | GGGATTGA | -0.0585
53 | AAATCTAA | -0.155
54 | AGTTTTGA | -0.083
55 | CGGTATAC | 0.0238
56 | GGTATGCA | -0.124
57 | GCCTCACC | -0.0555
58 | GGCTCGAC | -0.0845
59 | CAGTATGC | -0.136
60 | TATCTCGA | -0.134
61 | AGTGTAAA | -0.0303
62 | CGCTTGGA | -0.00701
63 | AGAGGCCT | -0.225
64 | ATCGATGG | 0.0106
65 | AAGGTTGC | -0.0716
66 | GTGCCAGA | -0.151
67 | ACCTTCGG | 0.144
68 | ATCAGCCC | -0.0307
69 | CCATATTC | 0.0896
70 | CAATGTCC | 0.0885
71 | CCCCACCC | 0.31
72 | CCCTACGC | -0.199
73 | CTTCAGAA | -0.0866
74 | GCCTGAAC | -0.29
75 | GGGCCACC | 0.14

Row | Sequence | PBM E-score
76 | GTGTTTCA | -0.231
77 | AAAGGAAA | 0.0486
78 | ATGTAACA | -0.0778
79 | CTCGGCGA | 0.307
80 | GCTATAAC | -0.0734
81 | AGGAAGGC | -0.185
82 | AGCTGATA | -0.151
83 | AAAAAGAC | -0.114
84 | TCAGACGA | -0.0621
85 | CTAAGTAC | -0.115
86 | AAGAGGAC | -0.207
87 | CACATCAC | -0.102
88 | GCATAAAC | -0.00073
89 | CACTAAGA | 0.00961
90 | CGGGCCAA | 0.0916
91 | ATCCTGTC | 0.115
92 | ATAGCTCA | -0.1
93 | AACATAGT | -0.0164
94 | GACATTGC | -0.158
95 | ATATTTAA | 0.0855
96 | ATGGTCCC | -0.0703
97 | CGGTACTC | -0.0123
98 | TCACCCGA | 0.244
99 | AAGAGCGG | 0.174
100 | AGAGCAAT | -0.101

Row | Sequence | PBM E-score
101 | CACCTTTC | -0.0106
102 | ATCGTAAA | -0.159
103 | GGCGTGTA | -0.139
104 | CTGGGTGA | -0.0478
105 | GCAACGCA | 0.0114
106 | ACGTAGCT | -0.31
107 | GCAGCGCC | 0.0568
108 | CGGTGTCC | 0.159
109 | ACTTTTTA | -0.169
110 | TGCCCTAA | -0.0596
111 | AAGATAAC | 0.0309
112 | CGACGTAA | -0.0605
113 | GTCCCCGA | 0.166
114 | CGACTCAA | 0.0233
115 | ACCGGTAT | 0.145
116 | CACAGCAA | 0.167
117 | ACTGCTAT | -0.0643
118 | CGGTAAAC | -0.0178
119 | AAGGTGGA | -0.0739
120 | AATGGCGC | 0.165
121 | ATCCTGAA | 0.0708
122 | AGACATCG | -0.178
123 | CGATTACA | -0.074
124 | ATGCCAAA | -0.234
125 | AACTCGCG | 0.118

Row | Sequence | PBM E-score
126 | CTAATACC | 0.0346
127 | ATTAGTTG | 0.0522
128 | GCCTACTA | 0.009
129 | ACTAGTCC | 0.0893
130 | GGGTAAGA | -0.0459
131 | TACCATCA | -0.219
132 | AGGGGACC | -0.104
133 | CGCTTTGA | -0.0624
134 | ATAATAAA | 0.102
135 | TAGACTCA | -0.0548
136 | ACTCGGTC | 0.0175
137 | GCGCAAGC | -0.0803
138 | ACGCTTAA | -0.213
139 | ACACCAGC | -0.156
140 | CGAAGTTC | 0.111
141 | AACTTGCC | -0.0147
142 | AACCCGTG | 0.0393
143 | TCTAAGCA | -0.193
144 | AATAGTGG | -0.0207
145 | AAAAATCT | -0.0176
146 | GCAACCGA | -0.0157
147 | GGATGTGA | 0.0186
148 | CGGTCGGC | 0.104
149 | AGAGTTAA | -0.244
150 | AACGAGGA | 0.0301

Row | Sequence | PBM E-score
151 | GAACCCGC | 0.169
152 | GGAATTCC | 0.299
153 | AGAGTCGG | 0.0673
154 | TCTACGCA | -0.211
155 | GAACTCGA | 0.137
156 | CACCAATG | -0.0351
157 | AGAAAAGA | -0.124
158 | CAGTTTAC | -0.16
159 | AGTTTAGC | -0.192
160 | AATGCACG | 0.116
161 | GACCTCGC | 0.0162
162 | GAAGACAC | 0.037
163 | CCGATGGA | 0.129
164 | CGTTTAAA | -0.0772
165 | AAGTCACG | 0.0265
166 | ATAATCCC | 0.196
167 | CAAAATCC | 0.12
168 | ATAACCAA | -0.0632
169 | AGCCACAA | -0.0241
170 | ACAAGACA | 0.0901
171 | ACCGATAC | 0.00062
172 | AGGGGCAG | -0.0868
